Measured values taken from patent US20200325238A1 (Hoffmann-La Roche, published 2020).
Changes are numbered by the printed parent chain. Names and notes keep the numbering of the source.

B1: mono CD19(018)-4-1BBL (Charged variant) (Fc fusion)
heavy: QVQLVQSGAEVKKPGASVKVSCKASGYTFTDYIMHWVRQAPGQGLEWMGYINPYNDGSKYTEKFQGRVTMTSDTSISTAYMELSRLRSDDTAVYYCARGTYYYGSALFDYWGQGTTVTVSSASTKGPSVFPLAPSSKSTSGGTAALGCLVKDYFPEPVTVSWNSGALTSGVHTFPAVLQSSGLYSLSSVVTVPSSSLGTQTYICNVNHKPSNTKVDKKVEPKSCDKTHTCPPCPAPEAAGGPSVFLFPPKPKDTLMISRTPEVTCVVVDVSHEDPEVKFNWYVDGVEVHNAKTKPREEQYNSTYRVVSVLTVLHQDWLNGKEYKCKVSNKALGAPIEKTISKAKGQPREPQVCTLPPSRDELTKNQVSLSCAVKGFYPSDIAVEWESNGQPENNYKTTPPVLDSDGSFFLVSKLTVDKSRWQQGNVFSCSVMHEALHNHYTQKSLSLSPGK
light: DIVMTQTPLSLSVTPGQPASISCKSSQSLENPNGNTYLNWYLQKPGQSPQLLIYRVSKRFSGVPDRFSGSGSGTDFTLKISRVEAEDVGVYYCLQLTHVPYTFGQGTKLEIKRTVAAPSVFIFPPSDEQLKSGTASVVCLLNNFYPREAKVQWKVDNALQSGNSQESVTEQDSKDSTYSLSSTLTLSKADYEKHKVYACEVTHQGLSSPVTKSFNRGEC
chain 1: REGPELSPDDPAGLLDLRQGMFAQLVAQNVLLIDGPLSWYSDPGLAGVSLTGGLSYKEDTKELVVAKAGVYYVFFQLELRRVVAGEGSGSVSLALHLQPLRSAAGAAALALTVDLPPASSEARNSAFGFQGRLLHLSAGQRLGVHLHTEARARHAWQLTQGATVLGLFRVTPEIPAGLGGGGSGGGGSREGPELSPDDPAGLLDLRQGMFAQLVAQNVLLIDGPLSWYSDPGLAGVSLTGGLSYKEDTKELVVAKAGVYYVFFQLELRRVVAGEGSGSVSLALHLQPLRSAAGAAALALTVDLPPASSEARNSAFGFQGRLLHLSAGQRLGVHLHTEARARHAWQLTQGATVLGLFRVTPEIPAGLGGGGSGGGGSRTVAAPSVFIFPPSDRKLKSGTASVVCLLNNFYPREAKVQWKVDNALQSGNSQESVTEQDSKDSTYSLSSTLTLSKADYEKHKVYACEVTHQGLSSPVTKSFNRGE[human IgG1 Fc with changes left out]
chain 2: REGPELSPDDPAGLLDLRQGMFAQLVAQNVLLIDGPLSWYSDPGLAGVSLTGGLSYKEDTKELVVAKAGVYYVFFQLELRRVVAGEGSGSVSLALHLQPLRSAAGAAALALTVDLPPASSEARNSAFGFQGRLLHLSAGQRLGVHLHTEARARHAWQLTQGATVLGLFRVTPEIPAGLGGGGSGGGGSASTKGPSVFPLAPSSKSTSGGTAALGCLVEDYFPEPVTVSWNSGALTSGVHTFPAVLQSSGLYSLSSVVTVPSSSLGTQTYICNVNHKPSNTKVDEKVEPKSC
notes: human IgG1 Fc, knob-into-hole, P329G LALA; also called monovalent CD19(018)-4-1BBL; Construct 3.4
B2: bi CD19(018)-4-1BBL (Fc fusion)
light: B1 light
heavy 1: QVQLVQSGAEVKKPGASVKVSCKASGYTFTDYIMHWVRQAPGQGLEWMGYINPYNDGSKYTEKFQGRVTMTSDTSISTAYMELSRLRSDDTAVYYCARGTYYYGSALFDYWGQGTTVTVSSASTKGPSVFPLAPSSKSTSGGTAALGCLVKDYFPEPVTVSWNSGALTSGVHTFPAVLQSSGLYSLSSVVTVPSSSLGTQTYICNVNHKPSNTKVDKKVEPKSCDKTHTCPPCPAPEAAGGPSVFLFPPKPKDTLMISRTPEVTCVVVDVSHEDPEVKFNWYVDGVEVHNAKTKPREEQYNSTYRVVSVLTVLHQDWLNGKEYKCKVSNKALGAPIEKTISKAKGQPREPQVCTLPPSRDELTKNQVSLSCAVKGFYPSDIAVEWESNGQPENNYKTTPPVLDSDGSFFLVSKLTVDKSRWQQGNVFSCSVMHEALHNHYTQKSLSLSPGGGGGSGGGGSREGPELSPDDPAGLLDLRQGMFAQLVAQNVLLIDGPLSWYSDPGLAGVSLTGGLSYKEDTKELVVAKAGVYYVFFQLELRRVVAGEGSGSVSLALHLQPLRSAAGAAALALTVDLPPASSEARNSAFGFQGRLLHLSAGQRLGVHLHTEARARHAWQLTQGATVLGLFRVTPEIPAGLGGGGSGGGGSREGPELSPDDPAGLLDLRQGMFAQLVAQNVLLIDGPLSWYSDPGLAGVSLTGGLSYKEDTKELVVAKAGVYYVFFQLELRRVVAGEGSGSVSLALHLQPLRSAAGAAALALTVDLPPASSEARNSAFGFQGRLLHLSAGQRLGVHLHTEARARHAWQLTQGATVLGLFRVTPEIPAGL
heavy 2: QVQLVQSGAEVKKPGASVKVSCKASGYTFTDYIMHWVRQAPGQGLEWMGYINPYNDGSKYTEKFQGRVTMTSDTSISTAYMELSRLRSDDTAVYYCARGTYYYGSALFDYWGQGTTVTVSSASTKGPSVFPLAPSSKSTSGGTAALGCLVKDYFPEPVTVSWNSGALTSGVHTFPAVLQSSGLYSLSSVVTVPSSSLGTQTYICNVNHKPSNTKVDKKV[human IgG1 Fc with changes left out]GGGGSGGGGSREGPELSPDDPAGLLDLRQGMFAQLVAQNVLLIDGPLSWYSDPGLAGVSLTGGLSYKEDTKELVVAKAGVYYVFFQLELRRVVAGEGSGSVSLALHLQPLRSAAGAAALALTVDLPPASSEARNSAFGFQGRLLHLSAGQRLGVHLHTEARARHAWQLTQGATVLGLFRVTPEIPAGL
notes: human IgG1 Fc, knob-into-hole, P329G LALA; 4-1BBL fused to the C-termini of the Fc chains; also called bivalent CD19(018)-4-1BBL; Construct 3.6
B3: mono untargeted DP47-4-1BBL (Fc fusion)
heavy: [about 100 residues left out]GSGFDYWGQGTLVTVSSASTKGPSVFPLAPSSKSTSGGTAALGCLVKDYFPEPVTVSWNSGALTSGVHTFPAVLQSSGLYSLSSVVTVPSSSLGTQTYICNVNHKPSNTKVDKKVEPKSCDKTHTCPPCPAPEAAGGPSVFLFPPKPKDTLMISRTPEVTCVVVDVSHEDPEVKFNWYVDGVEVHNAKTKPREEQYNSTYRVVSVLTVLHQDWLNGKEYKCKVSNKALGAPIEKTISKAKGQPREPQVCTLPPSRDELTKNQVSLSCAVKGFYPSDIAVEWESNGQPENNYKTTPPVLDSDGSFFLVSKLTVDKSRWQQGNVFSCSVMHEALHNHYTQKSLSLSPGK
light: [about 100 residues left out][about 100 residues left out]
chain 1: REGPELSPDDPAGLLDLRQGMFAQLVAQNVLLIDGPLSWYSDPGLAGVSLTGGLSYKEDTKELVVAKAGVYYVFFQLELRRVVAGEGSGSVSLALHLQPLRSAAGAAALALTVDLPPASSEARNSAFGFQGRLLHLSAGQRLGVHLHTEARARHAWQLTQGATVLGLFRVTPEIPAGLGGGGSGGGGSREGPELSPDDPAGLLDLRQGMFAQLVAQNVLLIDGPLSWYSDPGLAGVSLTGGLSYKEDTKELVVAKAGVYYVFFQLELRRVVAGEGSGSVSLALHLQPLRSAAGAAALALTVDLPPASSEARNSAFGFQGRLLHLSAGQRLGVHLHTEARARHAWQLTQGATVLGLFRVTPEIPAGLGGGGSGGGGSRTVAAPSVFIFPPSDEQLKSGTASVVCLLNNFYPREAKVQWKVDNALQSGNSQESVTEQDSKDSTYSLSSTLTLSKADYEKHKVYACEVTHQGLSSPVTKSFNRGE[human IgG1 Fc with changes left out]
chain 2: B1 chain 2 with E218K, E284K
notes: used here, to be rechecked; also called mono untargeted 4-1BBL; monovalent untargeted 4-1BBL

Columns and labels:
[1] = molecular target: T1, human CD19 (human, UniProt P15391 20-556); assay: flow cytometry on human PBMCs gated on living CD3- CD20+ B cells, constructs 1 h at 4 °C, PE anti-human IgG secondary
T1 construct: Endogenous CD19 on primary human B cells (PBMCs) or on the CD19 positive tumor cell line WSU-DLCL2; also called B-lymphocyte antigen CD19
T1 sequence: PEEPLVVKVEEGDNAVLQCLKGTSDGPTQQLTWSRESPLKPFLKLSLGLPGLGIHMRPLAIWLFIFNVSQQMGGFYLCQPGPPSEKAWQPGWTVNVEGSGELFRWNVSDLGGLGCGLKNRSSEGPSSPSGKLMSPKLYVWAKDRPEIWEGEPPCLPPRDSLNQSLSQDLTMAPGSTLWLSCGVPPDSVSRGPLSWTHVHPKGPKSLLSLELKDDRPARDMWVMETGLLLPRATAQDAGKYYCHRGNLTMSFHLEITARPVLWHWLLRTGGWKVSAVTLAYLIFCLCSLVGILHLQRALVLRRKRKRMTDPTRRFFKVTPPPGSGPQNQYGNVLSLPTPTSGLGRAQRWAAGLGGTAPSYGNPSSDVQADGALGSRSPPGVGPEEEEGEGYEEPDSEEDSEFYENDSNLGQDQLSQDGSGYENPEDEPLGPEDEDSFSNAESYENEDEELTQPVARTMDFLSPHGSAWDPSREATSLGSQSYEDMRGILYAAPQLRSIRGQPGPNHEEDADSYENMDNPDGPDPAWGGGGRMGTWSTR

[2] = molecular target: T2, human 4-1BB (human, UniProt Q07011 24-186); assay: flow cytometry on human PBMCs pre-activated 48 h with anti-CD3/anti-CD28 beads, gated on activated CD4 T cells, constructs 1 h at 4 °C, PE anti-human IgG secondary
T2 construct: also called CD137

[3] = molecular target: T2, human 4-1BB; assay: flow cytometry on human PBMCs pre-activated 48 h with anti-CD3/anti-CD28 beads, gated on activated CD8 T cells, constructs 1 h at 4 °C, PE anti-human IgG secondary

| Binder | EC50 (read off the curve) [1] [µg/mL] | EC50 (read off the curve) [2] [µg/mL] | EC50 (read off the curve) [3] [µg/mL] | binding result [1] |
| --- | --- | --- | --- | --- |
| B1 | ~0.3 | ~0.3 | ~0.3 | – |
| B2 | – | ~0.3 | ~0.3 | – |
| B3 | – | – | – | no binding (tested: 50 µg/ml) |
